# This is one part of the list.
# Key:
# HSkMC = human skeletal muscle cells; assay: cytotoxicity call (relative viability < 0.9); conditions: 10 µM
# HepG2 = assay: cytotoxicity call (relative viability < 0.9); conditions: 10 µM
# S. aureus RN4220 = assay: growth inhibition call (relative growth <= 0.2); conditions: 50 µM
SMILES,cytotoxicity call (HSkMC),cytotoxicity call (HepG2),growth inhibition call (S. aureus RN4220)
O=C(C[C@@H]1C[C@H]2c3cc(NS(=O)(=O)c4ccc(F)cc4)ccc3O[C@H]2[C@H](CO)O1)N1CCCCC1,inactive,inactive,inactive
CN1CCN(C(=O)C[C@@H]2CC[C@H]3[C@@H](COC[C@@H](O)CN3Cc3ccc4c(c3)OCO4)O2)CC1,inactive,inactive,inactive
CC(=O)O[C@H]1CC[C@]2(C)[C@H]3CC[C@]4(C)C(=CC(=O)O[C@H]4c4ccoc4)[C@]3(C)[C@H](OC(C)=O)C[C@H]2C1(C)C,inactive,inactive,inactive
CN(C)CC(=O)N[C@H]1CC[C@@H](CCNC(=O)C2CC2)O[C@@H]1CO,inactive,inactive,inactive
COc1ccc(NC(=O)Nc2ccc3c(c2)C(=O)N([C@H](C)CO)C[C@@H](C)[C@@H](CN(C)C(=O)C2CCCCC2)OCCCC[C@@H](C)O3)cc1,inactive,inactive,inactive
CC(=O)N1CC(=O)N(c2cnn(C)c2)C[C@]12CCN(C(=O)c1cnc(C)cn1)C2,inactive,inactive,inactive
C[C@H]1CN([C@@H](C)CO)C(=O)c2cc(-c3cccc(C(=O)N(C)C)c3)cnc2O[C@H]1CN(C)S(=O)(=O)c1ccc(F)cc1,inactive,inactive,inactive
CCCCCCCCCCCCCCCC(=O)OC1C(SC)OC(C(NC(=O)C2CC(CCC)CN2C)C(C)Cl)C(O)C1O.Cl (centres undefined),inactive,inactive,inactive
C=CCN(C#N)c1nc(N(C)C)nc(N(C)C)n1,inactive,inactive,inactive
COC(=O)CN(C)c1nnc(N)s1,inactive,inactive,inactive
CC(C)CC#Cc1cnc2c(c1)C(=O)N([C@@H](C)CO)C[C@H](C)[C@@H](CN(C)C(=O)c1ccc3c(c1)OCO3)O2,inactive,inactive,inactive
Cc1ccc(S(=O)(=O)Nc2ccc3c(c2)CC(=O)N([C@H](C)CO)C[C@H](C)[C@@H](CN(C)Cc2ccc(Oc4ccccc4)cc2)O3)cc1,inactive,inactive,inactive
O=C(C[C@@H]1CC[C@@H]2[C@H](COC[C@H](O)CN2C(=O)Nc2cccc(Cl)c2)O1)NCc1ccccc1F,inactive,inactive,inactive
C[C@@H]1CN([C@H](C)CO)C(=O)c2cccc(NC(=O)c3ccncc3)c2O[C@@H]1CN(C)Cc1ccc(Oc2ccccc2)cc1,inactive,inactive,inactive
COC(=O)[C@@H]1[C@H](C(=O)O)[C@@]2(C(=O)Nc3ccc(C#Cc4ccc(OC)cc4)cc32)[C@@H](c2ccccc2)N1C,inactive,inactive,inactive
CC(C)(C)OC(=O)CC[C@@]12N=C(c3ccc(OCCCO)cc3)O[C@@H]1c1ccccc1CN(Cc1ccccc1)C2=O,inactive,active,inactive
O=c1cc(-c2ccccc2O)oc2cc(O)ccc12,inactive,inactive,inactive
Cc1ccc(S(=O)(=O)N(C)C[C@@H]2Oc3ccc(NC(=O)Nc4ccc(C(F)(F)F)cc4)cc3C(=O)N([C@@H](C)CO)C[C@@H]2C)cc1,inactive,inactive,inactive
C[C@H](CO)N1C[C@H](C)[C@H](CN(C)S(C)(=O)=O)Oc2ccc(NS(=O)(=O)c3cccs3)cc2C1=O,inactive,inactive,inactive
Cc1noc(C)c1NC(=O)N[C@H]1CC[C@@H](CC(=O)NCCCN(C)C)O[C@@H]1CO,inactive,inactive,inactive
CC(C)(C)[C@H]1C=C(C(=O)N2CCCCCCC2)O[C@@H](OCc2ccc(COC(=O)NCCCCCC(=O)NO)cc2)C1,inactive,inactive,inactive
Cn1c(=O)c2[nH]cnc2n(C)c1=O.NCCN,inactive,inactive,inactive
C[C@H]1CN([C@@H](C)CO)C(=O)c2cccc(NC(=O)C3CCCCC3)c2O[C@H]1CN(C)Cc1ccc(Cl)c(Cl)c1,inactive,inactive,inactive
COc1ccc(S(=O)(=O)Nc2ccc3c(c2)CC(=O)N([C@@H](C)CO)C[C@H](C)[C@@H](CN(C)C)O3)cc1,inactive,inactive,inactive
Cc1noc(C)c1S(=O)(=O)N(C)C[C@@H]1Oc2c(NC(=O)C3CCOCC3)cccc2C(=O)N([C@@H](C)CO)C[C@@H]1C,inactive,inactive,inactive
CC(=O)OC1CC(OC(C)=O)C2(C)C(CC(OC(C)=O)C3(C)C4=CC(=O)OC(c5ccoc5)C4(C)CCC32)C1(C)C (centres undefined),inactive,inactive,inactive
C[C@@H]1CN([C@H](C)CO)C(=O)Cc2cc(NC(=O)Nc3ccccc3)ccc2O[C@H]1CN(C)C(=O)Nc1cccc2ccccc12,inactive,inactive,inactive
CCC[C@@H](O)C#Cc1cnc2c(c1)C(=O)N([C@H](C)CO)C[C@H](C)[C@H](CN(C)S(=O)(=O)c1ccccc1)O2,inactive,inactive,inactive

# Source: the antibiotic and cytotoxicity screens of Wong et al. (2023)
